Reference: PubChem BioAssay AID1466 (National Center for Advancing Translational Sciences (NCATS), 2008)
Hit rate of the full screen: of about 200,000 compounds, about 10 (0.005%) were called active. This list was built around the results that the source calls inconclusive (neither active nor inactive); the mix of calls is not that of the screen. The call rests on the fitted dose curve; in most records, active means well fitted inhibition curve with a large enough effect; inconclusive means small, poorly fitted or top-dose-only effect, or effect the other way, or another doubt; inactive means no such curve, though single readings can be large or run the other way. No potency is given beside an inconclusive call; the fits are too rough.

target: Lysosomal alpha-glucosidase (Homo sapiens) (UniProt P10253); assay: qHTS Assay for Inhibitors of Human alpha-Glucosidase as a Potential Chaperone Treatment of Pompe Disease; conditions: purified human GAA, 4-MU-alpha-glucoside fluorescence; activity change, negative = inhibition: at 76.9 µM (top of the series) unless noted;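 on activity change, negative = inhibition: plate controls were uninhibited enzyme wells for no effect and no-enzyme background for full effect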
Procedure, shortened: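 Enzyme (4 nM final) mixed with compound (up to 77 uM), then 4-MU-alpha-D-pyranoside (400 uM final) added; 20 min at room temperature, pH 5.0. Reaction stopped at pH 10, fluorescence read, AC50 derived by Hill fit.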
Potency means the concentration at half of the fitted maximal effect; tags describe the fitted curve by direction and shape.

Compound | Potency | activity change, negative = inhibition
CCOC(=O)C1=C(C)NC(SCC(=O)OC)=C(C#N)C1c1ccc(C(=O)OC)cc1 (stereo unspecified) | inconclusive [inhibitor, partial curve, poor fit] | –
CCOC(=O)C(=Cc1ccc(Br)cc1)C(=O)OCC | – | inactive: -7.94%
Cc1c(Cc2ccccc2)c(=O)oc2c(O)c(O)ccc12 | – | inactive: -9.46%
CCOC(=O)c1sc(NC(=O)/C=C/c2cnn(CC)c2C)c(C(=O)OCC)c1C | inconclusive [inhibitor, full curve] | –
CCC1CCCCN1S(=O)(=O)c1ccc(C(=O)Nc2nnc(-c3ccccc3Cl)o2)cc1 (stereo unspecified) | – | inconclusive: -16.9% [inhibitor]
CCC1CCCN1Cn1cnc2c([nH]c3ccc(C)cc32)c1=O (stereo unspecified) | inconclusive [inhibitor, partial curve, poor fit] | –
COc1ccc(S(=O)(=O)N2CCN(S(=O)(=O)c3ccc4c(c3)OCCO4)CC2)cc1C | inconclusive [inhibitor, single point] | –
Cc1cccc(NS(=O)(=O)c2ccc(C)c(C(=O)OCC(=O)Nc3cc(C)on3)c2)c1 | – | inconclusive: -28% [inhibitor]
COc1ccc2oc(=O)c(C(=O)NCc3ccco3)cc2c1 | – | inconclusive: 21% [activator]
CCCN1CCc2c(sc(NC(=S)NC(=O)c3ccccc3)c2C#N)C1 | inconclusive [inhibitor, single point] | –
CCOC(=O)N1CCN(C(=O)c2ccc3c(=O)n(CCc4ccccc4)c(=O)[nH]c3c2)CC1 | inconclusive [activator, single point] | –
CCCCS/C(=C(/C#N)C(N)=O)c1cc2c([nH]1)CCCC2 | – | inconclusive: -15.3% [inhibitor]
O=C(CSc1nnc2ccc3ccccc3n12)N1CCOCC1 | inconclusive [activator, single point] | –
Cc1cc(C)c(NC(=O)/C=C\C(=O)O)c([N+](=O)[O-])c1 | inconclusive [inhibitor, single point] | –
NNc1ncnc2sc3c(c12)CCC3 | inconclusive [inhibitor, partial curve, poor fit] | –
CNC(=O)CN(C)S(=O)(=O)c1ccc(OC)c(Cl)c1 | – | inconclusive: -15.9% [inhibitor]
CC(C)(C)NS(=O)(=O)c1ccc(NC(=O)Cc2ccccc2[N+](=O)[O-])cc1 | inconclusive [inhibitor, single point] | –
COc1ccc(Cn2cccc(NC(=O)Nc3cccc(C#N)c3)c2=O)cc1 | inconclusive [inhibitor, full curve, poor fit] | –
O=C(O)CC1(CC(=O)Nc2ccc(F)cc2F)CCCCC1 | inconclusive [inhibitor, single point] | –
Cc1ccc(NC(=S)NNC(=S)Nc2ccc(C)cc2C)cc1 | – | inconclusive: 7.42% [activator]
COc1ccc(-c2c(N)n[nH]c2C)cc1OC | – | inconclusive: 15.6% [activator]
COc1ccc2nc(NC(=O)Cc3cccs3)sc2c1 | inconclusive [inhibitor, single point] | –

Compound | Potency | activity change, negative = inhibition
COc1ccccc1NC(=O)CSCC(=O)N1c2ccccc2CCc2ccccc21 | – | inconclusive: -15.9% [inhibitor]
C=CCN1C(c2ccc(Br)cc2)=CS/C1=C(/C#N)c1nnc(N2CCOCC2)n1-c1ccccc1 | inconclusive [inhibitor, single point] | –
Cc1cc(=O)n(Cc2ccc(OC(C)C)cc2)c(=S)[nH]1 | – | inconclusive: 16.9% [activator]
Cc1nc(NCC2CCCO2)nc2c1C(=O)CC(C)(C)C2 (stereo unspecified) | inconclusive [inhibitor, single point] | –
COc1ccccc1NC(NC(=O)c1ccccn1)C(Cl)(Cl)Cl (stereo unspecified) | inconclusive [inhibitor, single point] | –
NNc1ccc2nnc(C(F)(F)C(F)(F)C(F)(F)F)n2n1 | – | inactive: 7.95%
COc1cc(NC(=O)C2CCC(CNc3c(N4CCC(C)CC4)c(=O)c3=O)CC2)cc(OC)c1 (stereo unspecified) | inconclusive [inhibitor, full curve, poor fit] | –
CC(=O)N1c2ccccc2NC(=O)C1(C)C | – | inconclusive: -15.4% [inhibitor]
CC(=O)Nc1ccc(C(=O)N/N=C(\C)CC(=O)Nc2ccc(OCc3ccccc3)cc2)cc1 | inconclusive [inhibitor, single point] | –
Nc1nnc(SCc2ccccc2Cl)s1 | inconclusive [inhibitor, partial curve] | –
CCOC(=O)c1[nH]ncc1CN1CCCC(C(=O)c2ccc(SC)cc2)C1 (stereo unspecified) | inconclusive [inhibitor, partial curve, poor fit] | –
N#Cc1c(Nc2ccccc2)sc(C(=O)c2ccccc2)c1N | inconclusive [inhibitor, single point] | –
Cc1ccc(S(=O)(=O)N2CCC(CN3C(=O)c4cccc5cccc(c45)C3=O)CC2)cc1 | inconclusive [activator, single point] | –
COc1ccc(/C=N/N=C(\N)c2nonc2N)cc1OC | – | inactive: -10.7%
CCOc1ccccc1-n1c(SCC(N)=O)nnc1-c1ccccc1 | inconclusive [inhibitor, partial curve] | –
CC12CCC(C/C1=N\N=C1\NC(=O)/C(=C\c3cccc(Br)c3)S1)C2(C)C (stereo unspecified) | inconclusive [inhibitor, single point] | –
CC1Cc2ccccc2N1C(=O)Cn1cnc2ccccc2c1=O (stereo unspecified) | inconclusive [inhibitor, single point] | –
COc1cccc(N/C(SCc2cccc([N+](=O)[O-])c2)=C(/C#N)C(N)=O)c1 | – | inconclusive: -15.8% [inhibitor]
COc1ccc(-c2nc3c(c(=O)[nH]c(=O)n3Cc3ccccc3)n2Cc2ccccc2)cc1 | inconclusive [inhibitor, single point] | –
Cc1ccc(S(=O)(=O)N2CCN(CC(=O)NC3CCCc4ccccc43)CC2)cc1C (stereo unspecified) | inconclusive [inhibitor, single point] | –
O=C(COc1ccccc1)N1CCN(S(=O)(=O)c2cccs2)CC1 | – | inconclusive: -19.1% [inhibitor]
Cc1cccn2c(=O)c3cc(C#N)c(=NC(=O)c4cccs4)n(CCCOC(C)C)c3nc12 | inconclusive [activator, single point] | –

Compound | Potency | activity change, negative = inhibition
COCCn1c(SCC(=O)c2ccc(F)cc2)nnc1C(C)C | inconclusive [inhibitor, single point] | –
COc1ccccc1N1CCN(/N=C/C=C\c2ccccc2[N+](=O)[O-])CC1 | inconclusive [inhibitor, single point] | –
CCOc1ccc(OCC)c(-c2c(=O)n(OCc3ccc(C(C)(C)C)cc3)c3ccccc3[n+]2[O-])c1 | inconclusive [inhibitor, partial curve] | –
COCCCn1c(Cc2csc(Nc3cccc(Cl)c3)n2)nnc1SCC(=O)OC1CCCCC1 | inconclusive [inhibitor, full curve, poor fit] | –
Cc1cccc(-c2csc(N)c2C(=O)OC(C)C)c1 | – | inconclusive: -16.1% [inhibitor]
CCCN1C(=O)/C(=C/c2ccc(C)o2)NC1=S | – | inactive: -1.21%
Cc1ccccc1OCC(=O)NNC(=O)CCc1ccccc1 | – | inconclusive: 15.5% [activator]
COc1ccc2[nH]cc(CCNS(=O)(=O)c3ccccc3)c2c1 | inconclusive [inhibitor, partial curve] | –
CC(CCc1ccccc1)NC(=O)/C=C/c1ccc(Cl)cc1 (stereo unspecified) | inconclusive [inhibitor, single point] | –
N#C/C(=C/c1ccccc1[N+](=O)[O-])c1nnc2n1CCCCC2 | inconclusive [inhibitor, single point] | –
O=C(CCNC(=O)c1ccco1)NCc1ccccc1 | inconclusive [inhibitor, full curve, poor fit] | –
COc1cccc(CN2CCNC(=O)C2CC(=O)NCCn2ccc3ccccc32)c1OC (stereo unspecified) | inconclusive [inhibitor, single point] | –
CC(=O)OCC1(C)CN(c2ccccc2)N(C(C)=O)C1=O (stereo unspecified) | – | inconclusive: -15% [inhibitor]
c1ccc(Cn2c(-c3ccco3)nc3nc4ccccc4nc32)cc1 | inconclusive [activator, partial curve] | –
COc1ccc(O)c(-c2c(-c3ccc(Cl)cc3)n[nH]c2C)c1 | – | inactive: -8.38%
O=C1CCCC2=C1C(c1ccncc1)n1c(nc3ccccc31)N2 (stereo unspecified) | inconclusive [activator, partial curve] | –
CCc1nc(NCc2ccccc2)c(C#N)c2c1CCCC2 | inconclusive [inhibitor, partial curve] | –
Cc1ccccc1-c1noc(-c2ccccc2F)n1 | inconclusive [inhibitor, single point] | –
CC1CCN(CCC(=O)Nc2ccc(Cl)cc2)CC1 | inconclusive [inhibitor, single point] | –
Cc1cccc2cc(C(c3nnnn3C3CCCC3)N3CCOCC3)c(=O)[nH]c12 (stereo unspecified) | inconclusive [inhibitor, partial curve] | –
CN(Cc1nc(-c2cccs2)no1)CC1COCCO1 (stereo unspecified) | – | inconclusive: -15.5% [inhibitor]
CC(C)(C)c1ccc(OCC(=O)Nc2ccc3c4c(cccc24)C(=O)NC3=O)cc1 | – | inconclusive: 26.2% [activator]
